Experimental data as given in patent publication US8729059B2, “Paramyxovirus family inhibitors and methods of use thereof” (priority 2007, dated 2014).

Biological target: MV H and F envelope glycoproteins (Measles virus, UniProt P69353)
Settings: 16677 up to 150 μM

Compound: Cn1nc(C(F)(F)F)cc1C(=O)Nc1ccc(S(=O)(=O)N2CCCC2)cc1 [compound 16677, 1-methyl-3-(trifluoromethyl)-N-[4-(pyrrolidinylsulfonyl)-phenyl]-1H-pyrazole-5-carboxamide]
- inhibition of cell-to-cell fusion mediated by transiently expressed MV H and F proteins: entirely uninhibited
